According to PMC4336329 (PLoS ONE, 2015):
In all, about 310,000 compounds went through this assay and about 14,000 (4.5%) showed an effect of 50% or more. The effect is printed as a negative number. The list shows a part of the results. Where a SMILES comes first, the peptide text is derived from it. The star is where a group is joined. Cbz = O=C(OCc1ccccc1)*; Boc = CC(C)(C)OC(=O)*

Target: human ether-à-go-go-related gene (hERG) potassium channel (human, UniProt Q12809)
Test: primary screen, population patch clamp on CHO cells stably expressing hERG
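Also: peak tail current of the secondary pulse compared with the same well before compound.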

Chain of human ether-à-go-go-related gene (hERG) potassium channel (Q12809 whole entry, looked up): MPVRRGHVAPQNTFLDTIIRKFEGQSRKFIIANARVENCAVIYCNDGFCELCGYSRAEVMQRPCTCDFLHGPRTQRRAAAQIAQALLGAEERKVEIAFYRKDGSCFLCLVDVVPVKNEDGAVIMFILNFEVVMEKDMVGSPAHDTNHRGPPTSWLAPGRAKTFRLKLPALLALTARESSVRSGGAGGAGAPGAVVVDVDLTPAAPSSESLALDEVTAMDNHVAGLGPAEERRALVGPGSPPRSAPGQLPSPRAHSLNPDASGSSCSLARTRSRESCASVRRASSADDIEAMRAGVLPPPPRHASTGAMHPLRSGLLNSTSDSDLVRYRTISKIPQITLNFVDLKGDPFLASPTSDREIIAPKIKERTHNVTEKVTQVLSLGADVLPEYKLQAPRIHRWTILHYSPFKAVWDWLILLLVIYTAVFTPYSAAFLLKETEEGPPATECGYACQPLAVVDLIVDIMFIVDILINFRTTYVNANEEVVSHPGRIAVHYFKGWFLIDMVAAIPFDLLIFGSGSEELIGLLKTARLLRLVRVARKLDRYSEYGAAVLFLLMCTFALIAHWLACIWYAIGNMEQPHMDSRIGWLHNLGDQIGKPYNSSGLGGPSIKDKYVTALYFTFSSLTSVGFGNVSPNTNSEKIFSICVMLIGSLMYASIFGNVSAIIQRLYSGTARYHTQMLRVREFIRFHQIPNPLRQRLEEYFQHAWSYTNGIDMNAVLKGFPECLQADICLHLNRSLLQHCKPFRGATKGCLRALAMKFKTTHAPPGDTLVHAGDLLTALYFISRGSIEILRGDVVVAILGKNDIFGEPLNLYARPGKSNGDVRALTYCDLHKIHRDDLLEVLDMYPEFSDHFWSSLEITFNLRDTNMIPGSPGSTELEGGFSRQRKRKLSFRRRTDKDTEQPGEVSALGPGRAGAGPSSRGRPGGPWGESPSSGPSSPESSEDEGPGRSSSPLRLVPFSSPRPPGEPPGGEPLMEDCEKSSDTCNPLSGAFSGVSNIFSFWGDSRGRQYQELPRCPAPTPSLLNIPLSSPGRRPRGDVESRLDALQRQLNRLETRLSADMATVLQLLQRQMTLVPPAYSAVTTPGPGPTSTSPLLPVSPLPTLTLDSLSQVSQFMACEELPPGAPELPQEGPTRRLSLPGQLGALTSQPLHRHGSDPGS

Compound	hERG current change (%, negative = inhibition) at 10uM [%]
Cc1occc1C(=O)NN=C1C2CC3CC(C2)CC1C3	-3.36
O=C(COC(=O)c1cnc(Cl)c(Cl)c1)NC1CCCCCC1	14.9
COc1cccc(OCCSc2nc(N)cc(N)n2)c1	-3.95
O=C(Nc1cccc(-c2nnco2)c1)c1cccs1	-1.6
CCC(C)C(NC(=O)OCc1ccccc1)C(=O)NC(Cc1ccc(O)cc1)C(=O)OC (stereo not drawn) (Cbz-Ile-Tyr-OMe; configuration not given here)	9.25
CC(Sc1nnc(COc2ccc(Cl)cc2)n1Cc1ccccc1)C(=O)O (stereo not shown)	3.06
CC(=O)N1CCN(CCN=CC2=C(O)CC(C)(C)CC2=O)CC1	8.49
CCOC(CCn1c(SCc2ccc([N+](=O)[O-])cc2)nc2ccccc2c1=O)OCC	-39
Cc1cc(NC(=O)CCC(=O)N(CC(=O)NC2CCCC2)Cc2ccc(F)cc2)no1	4.02
CCc1ccc(S(=O)(=O)NCc2csc(C)n2)cc1	6.32
COc1cccc(CC(=O)NNC(=O)c2ccc3c(c2)OCO3)c1	1.7
COc1cc(C)c(Br)cc1S(=O)(=O)NCc1cccs1	-42.2
Cc1ccc(NC(=O)CSc2nccn2Cc2ccco2)cc1	1.81
CS(=O)(=O)N(Cc1ccccc1)c1ccc(C(=O)Nc2ccc(C(N)=O)cc2)cc1	12.8
Cc1cc(=O)[nH]n(CCO)c1=O	14.7
O=C(COc1ccccc1Br)N1CCN(C(=O)c2cccs2)CC1	-32.2
CC1(C)CC(=O)C2=C(C1)OC(c1ccncc1)C(C#N)=C2N (stereo not shown)	-8.14
CCCN(CC(=O)Nc1cc(Cl)ccc1Cl)C(=O)c1ccccc1SCC(=O)N1CCCC1	-21.3
COc1cccc(OC)c1C(=O)Nn1c(-c2cccs2)nc2ccccc2c1=O	-6.58
CC1Cc2ccccc2N1C1=NS(=O)(=O)c2ccccc21 (stereo not shown)	-0.394
COc1ccc(NC(=O)CSc2nncn2C)c([N+](=O)[O-])c1	1.55
N#Cc1ccc(COC(=O)c2ccccn2)cc1	-8.75

Compound	hERG current change (%, negative = inhibition) at 10uM [%]
Cc1ccc(S(=O)(=O)NNC(=O)Nc2ccc(Cl)cc2)cc1	6.38
CCOc1ccccc1NC(=O)COC(=O)CC(NC(N)=O)c1ccc(Cl)cc1 (stereo not shown)	-68.4
COCCNC(=O)c1ccccc1NC(=O)c1ccc(Cl)c(S(=O)(=O)Nc2ccc(C)cc2C)c1	-11.7
Cc1cc(NC(=O)c2c(-c3ccccc3Cl)noc2C)no1	5.88
Cc1cccc(-c2nc3ccccc3c(=O)n2NC(=O)/C=C/c2ccc([N+](=O)[O-])cc2)c1	-60.7
O=[N+]([O-])c1ccc(-[n+]2ccc3ccccc3c2)c([N+](=O)[O-])c1.[Cl-]	-4.13
COC(=O)c1sccc1NC(=O)CC1C(=O)NCCN1C(=O)Nc1ccc(C(F)(F)F)cc1 (stereo not shown)	5.76
CCCCOc1nc2ccccc2nc1C(C#N)C(=O)NC1CCCCC1 (stereo not shown)	11.4
CC#CCNCc1ccccc1	10.7
Cc1cc(Br)cc(Br)c1OCC(=O)NNC(=O)Nc1ccccc1	5.27
CN(C)S(=O)(=O)c1ccc(N2CCCC2)c(C(=O)OCC(=O)N2CCN(c3ccccc3)CC2)c1	-12.5
CCCCC(=O)NC(=S)NNC(=O)CCc1ccccc1	6.18
CCOC(=O)c1cnc(SC2CC(=O)N(c3ccc(OC)c(OC)c3)C2=O)nc1N (stereo not shown)	-10
Cc1ccsc1/C=C1/SC(N2CCOCC2)=NC1=O	-9.35
COc1cccc(/C=N/NC(=O)c2cc(C34CC5CC(CC(C5)C3)C4)[nH]n2)c1	-16.5
COc1ccc(-c2nn(CCC(=O)O)cc2/C=C/C(=O)O)cc1[N+](=O)[O-]	5.53
Cc1cc(C)cc(OCC(=O)Nc2ccc(N3CCCCC3)cc2)c1	17.1
CC1CCN(CCc2nc3cc(NC(=O)C(C)C)ccc3n2C)CC1	-0.549
CCc1ccccc1NC(=O)/C(=C/c1ccco1)c1ccccc1	-14.3
COc1cc(/C=C(\NC(C)=O)C(=O)Nc2ccc(NC(C)=O)cc2)ccc1OC(C)=O	4.55
CN(C)CCNC(=O)C(=O)Nc1cc2c3c(c1)CCC(=O)N3CCC2	13.7
COc1ccc(CCN=C(N)NS(=O)(=O)c2ccc(F)cc2)cc1OC	3.82

Compound	hERG current change (%, negative = inhibition) at 10uM [%]
Cc1ccc(S(=O)(=O)N2CCN(Cc3cc(=O)n4ccccc4n3)CC2)c(C)c1	-80.6
Cc1noc(C)c1C(=O)Nc1nc(-c2ccc([N+](=O)[O-])cc2)cs1	-1.58
CCN(CCCNC(=O)c1c(C)cc(=O)oc1C)c1ccccc1	-52.7
COc1ccc(/C=C2\SC(=S)N(CCCC(=O)Nc3cccc(C(=O)O)c3)C2=O)cc1OC	12.5
O=C(NCCc1ccccc1F)C1CCCN1S(=O)(=O)c1ccc2ccccc2c1 (stereo not shown)	-23.1
COc1ccc(NC(C)=O)cc1C#N	19.3
COc1ccc(NC(=O)Nc2ccc3oc(C)nc3c2)cc1	9.73
CC(=O)c1ccc2noc(-c3ccccc3)c2c1	0.248
O=c1[nH]c(=O)n(Cc2ccco2)c2c1C(C(F)(F)F)(C(F)(F)F)N=C(CCC1CCCCC1)N2	-6.13
Cc1cc([N+](=O)[O-])nn1CC(=O)NC(C)c1ccccc1 (stereo not shown)	18.8
Cl.Clc1ccc(CN2C3=NCCCN3c3ccccc32)c(Cl)c1	-66
CCC(C)n1nnc2c(=O)oc3ccccc3c21 (stereo not shown)	-10.7
CCCOc1ccc(Cc2c(Cl)nc(SC)nc2OC)cc1	18.9
COC(=O)c1ccccc1CSc1nsc(C)c1C#N	18.4
COc1ccccc1-c1c(C(F)(F)F)oc2c(CN(C)C)c(O)ccc2c1=O	10.9
COc1cc2c(cc1OC)CN(C(=O)c1cc3ccccc3oc1=O)CC2	20
O=C(O)CCn1cc(C2CC(c3ccccc3)=NN2c2ccccc2)c(-c2ccccc2)n1 (stereo not shown)	63.4
CCOc1cccc(-c2cc(C(=O)Nc3ccon3)c3ccccc3n2)c1	14.5
COc1ccc(C(=O)/C=C2/c3ccccc3CC(C)(C)N2C)cc1	-13.7
CC(C)C(NC(=O)OC(C)(C)C)C(=O)N1CCCC1C(=O)NC(Cc1ccccc1)C(N)=O (stereo not drawn) (Boc-Val-Pro-Phe-NH2; configuration not given here)	-8.68
COc1ccc(CC2(CCc3ccncc3)C(=O)NC(=O)NC2=O)c(OC)c1	6.03
Cc1ccc(C)c(N2CCN(C(=O)c3csc(C)c3C)CC2)c1	-26.7

Compound	hERG current change (%, negative = inhibition) at 10uM [%]
CC(=O)N1CCc2cc(Br)cc(S(=O)(=O)CCC(=O)N3CCN(c4ccccn4)CC3)c21	2.49
COC(=O)c1ccccc1S(=O)(=O)Oc1ccc(-c2ccc(C(=O)O)cc2)cc1	-11.4
O=C(CN(Cc1ccccc1)S(=O)(=O)c1ccccc1)N/N=C/c1ccc([N+](=O)[O-])cc1	-18.2
COc1ccc(CNC(=O)CN(c2ccc(C)cc2)S(=O)(=O)c2c(C)nn(C)c2C)cc1	-7.82
Cc1c(CCOC(=O)c2ccccc2)sc[n+]1CC(=O)c1ccc(Br)cc1.[Br-]	-77
Cn1c(=O)c2c(-c3cccc(Br)c3)c(C#N)c(N)nc2n(C)c1=O	-32.5
CC1CCN(CCCOc2ccc(Br)cc2Cl)CC1	-72.8
COc1ccc(CCn2c(O)c(C=Nc3ccc(NC(C)=O)cc3)c(=O)[nH]c2=O)cc1OC	27.6
CCCC(=O)Nc1ccc(NC(=O)c2cc3ccccc3o2)c(OC)c1	16.2
O=c1nc2sc3ccccc3n2c(=O)n1-c1ccc(Cl)cc1	22.1
O=C1N(Cc2cccc(Cl)c2)C[C@@H]2C[C@@H](c3cccn3-c3cccnc3)N3CCC[C@@]123	-35.7
CCC(C)(C)NC(=O)C(c1ccc(OC)cc1)N(C(=O)CCC(=O)Nc1cc(C)on1)C1CC1 (stereo not shown)	-13.9
COc1cc(OC)cc(C(=O)NNC(=O)CNC(=O)c2cccs2)c1	18.9
CCC(C(=O)NCc1cccnc1)n1nc(C)n2c(cc3occc32)c1=O (stereo not shown)	1.55
Cc1cccc(NC(=O)CSCC(=O)OCc2ccccn2)c1	16.7
CN1CCN(C(=O)CCN2C(=O)/C(=C\c3ccc(Cl)cc3)SC2=S)CC1	8.83
O=C(Nc1ccc(F)cc1)NC1CCCCCCC1	25.4
Cc1cc(=O)oc2cc(NC(=O)CCCC(=O)O)ccc12	15.1
COC(=O)COc1ccc(S(=O)(=O)NCCC2=CCCCC2)cc1C	-4.62
